Consider 57 compounds from PubChem BioAssay AID463173 (ICCB-Longwood Screening Facility, Harvard Medical School, 2010).

Among all 52,000 compounds or so, about 4,300 (8.3%) were called active. Cut-off read from the data, not from the text of the source: active = survival mostly below about 52% (no sharp cut-off); inactive = mostly above about 56%. This is one part of the list.

The test system of this assay is DeltatarO mutant. As to the kind of experiment: S. aureus survival, RN4220 and DeltatarO strains – OD600, teichoic acid synthesis inhibitors, primary screen (AID 463173). The settings on record: S. aureus RN4220 wild type/DeltatarO growth, OD600, 18 h, hits give low values, screened at 18.75 µg/mL (by protocol).
With `Cc1c(C(=O)NCc2ccccc2)oc2ccc(S(=O)(=O)N3CCC(C)CC3)cc12`, the survival is inactive: 55%. The result for `Cc1ccc(NC(=O)C(=O)NCC(c2cccnc2)N2CCN(C)CC2)cc1` (configuration not stated) reads inactive: 79%; that for `O=C(NCCc1ccc(Cl)cc1)C(=O)NCC(c1ccco1)S(=O)(=O)c1ccccc1` (configuration not stated), inactive: 118%. With `CCn1c(CN2CCCCC2)nc2cc(NC(=O)COc3ccccc3C(C)(C)C)ccc21` the figure was inactive: 101%; with `Cc1coc2c1c(C)cc1oc(=O)c(CC(=O)NCCc3ccc(Cl)cc3)c(C)c12`, inactive: 75%. The result for `COc1ccc(C)cc1NC(=O)c1ccc2nc(Cc3ccccc3)oc2c1` reads inactive: 118%. On to `COc1ccc(CCNC(=O)c2c(O)nc3c(C)cccn3c2=O)cc1OC`, for which the survival was inactive: 91%.

On to `CCC(CC)C(=O)Nc1nnc(SCc2cc(=O)c3ccccc3[nH]2)s1`, for which the survival is inactive: 115%. With `COCCNC(=O)CSc1nc2cc3c(cc2c(=O)n1CCCC(=O)NCCc1ccc(OC)c(OC)c1)OCO3` the figure was inactive: 64%; with `CCC(C)(C)NC(=O)C1CCC(CNS(=O)(=O)c2ccc3c(c2)CC(C)N3C(C)=O)CC1` (configuration not stated), inactive: 69%; with `Cc1ccc(Cl)cc1N1CCN(C2(c3ccccc3)C(=O)c3ccccc3C2=O)CC1`, inactive: 100%. With `COc1cccc(NC(=O)Cn2c(=O)n(-c3cccc(OC)c3)c(=O)c3sc4ccccc4c32)c1` the figure was inactive: 65%.

Regarding `CCCCNC(=O)CCCN1C(=O)CCn2nc(-c3cccn3C)cc21`, the survival was inactive: 65%. On to `CCOCCCNC(=O)CN1C(=O)c2cccnc2Sc2ccccc21`, for which the survival is inactive: 84%.

In the case of `CCC(C)NS(=O)(=O)c1ccc(N2CCCCS2(=O)=O)cc1` (configuration not stated), the survival was inactive: 124%. The result for `COc1ccc(C)cc1NC(=O)C1CCCN(S(=O)(=O)c2ccc3c(c2)CCCN3C(C)=O)C1` (configuration not stated) reads inactive: 82%. The result for `COc1cccc2c1cc1c(=O)n(CC(=O)N3CCCCC3)nc(C)n12` reads inactive: 94%; that for `Cc1ccc(-n2c3c(c(=O)[nH]c2=O)C(NS(=O)(=O)c2ccc(Cl)cc2)(C(F)(F)F)C(=O)N3)cc1` (configuration not stated), inactive: 71%. With `Fc1cccc(NCc2ccccc2-c2nnc(-c3ccccc3Cl)o2)c1`, the survival is inactive: 110%. The result for `O=c1c2oc3ccccc3c2n(Cc2ccc(Cl)cc2)c(=O)n1Cc1ccc2c(c1)OCO2` reads inactive: 66%; that for `CCc1ccc(NC(=O)CSc2nc(-c3ccccc3)no2)cc1`, inactive: 81%. With `CN1CCN(C(=O)Nc2ccc(Cc3ccc(NC(=O)N4CCN(C)CC4)cc3)cc2)CC1` the figure was inactive: 58%.

Consider `COc1ccc(CCNc2ncnc3c2nnn3C)cc1OC`, for which the survival was inactive: 80%. With `CN(C)S(=O)(=O)N(CC(=O)Nc1ccc(Br)cc1F)c1ccccc1` the figure was inactive: 68%; with `Fc1ccccc1N1CCN(c2nnc(C(F)(F)F)c3nnn(Cc4ccccc4)c23)CC1`, inactive: 78%. For the compound `O=C(Cn1c(SCCOc2ccccc2Cl)nc2ccccc21)N1CCOCC1`, the survival was active: 39%. The result for `NC(=S)NN=C1c2cc(S(=O)(=O)N3CCOCC3)ccc2-c2ccc(S(=O)(=O)N3CCOCC3)cc21` reads inactive: 94%; that for `COc1ccc2c(CNCc3ccco3)c(C(=O)O)n(Cc3ccc(F)cc3Cl)c2c1`, inactive: 96%. The result for `O=C(NCc1ccccc1Cl)c1ccc2c(c1)N(Cc1ccccc1)C(=O)c1ccccc1S2` reads inactive: 144%; that for `CCOC(=O)c1[nH]c2ccccc2c1NC(=O)c1c(F)cccc1F`, inactive: 79%.

For `CCOC(=O)c1sc2ncn(CC(=O)Nc3cccc(C)c3)c(=O)c2c1C`, the survival is inactive: 66%. Turning to `C1CCC(Nc2nnnn2C2CCCCC2)CC1`, the survival was inactive: 79%. The result for `COc1cccc(OCCCn2c(-c3ccc(Cl)cc3)nc3ccccc3c2=O)c1` reads inactive: 61%; that for `CCc1cccc(NC(=O)c2cc(-c3ccccc3)n[nH]2)c1`, inactive: 90%; that for `COc1cc(NC(C)=O)ccc1-c1cc2ccccc2oc1=O`, inactive: 96%.

Turning to `O=C(Nc1cccc(Cl)c1)C1CCN(c2nc3ccccc3nc2C(F)(F)F)CC1`, the survival was inactive: 70%. The result for `COc1ccccc1Cn1ccn(CC(=O)Nc2c(C)cc(C)cc2C)c(=O)c1=O` reads active: 41%; that for `CC(C)C(=O)NC1CC(=O)N(c2ccc3c(c2)OCCO3)C1` (configuration not stated), inactive: 116%. With `Cc1nnc(N2CCN(c3ccc(Cl)cc3)CC2)c2c1nnn2Cc1ccc(F)cc1` the figure was inactive: 77%; with `Oc1ccc(Nc2nc(-c3ccc(O)cc3)cs2)cc1`, active: 1%. Turning to `COc1cccc(C(c2sc3nc(-c4ccco4)nn3c2O)N2CCCC2)c1` (configuration not stated), the survival is inactive: 71%. In the case of `Cc1ccc(-n2nc(C)c3c(C)cc(=O)n(CC(=O)Nc4ccc(C(C)C)cc4)c32)cc1`, the survival is inactive: 107%.

As to `CN(C1CCCCC1)S(=O)(=O)c1ccc(F)c(C(=O)Nc2ccc(C(F)(F)F)cc2)c1`, the survival was inactive: 83%.

`COc1ccc(NC(=O)c2c(NCc3cccs3)sc3c2CCCCC3)cc1`: the survival was inactive: 72%. `Cc1c(C(=O)Nc2cccc(F)c2)sc2nc(-c3cc4ccccc4oc3=O)[nH]c(=O)c12`: the survival was active: 37%. With `CC1CCCCN1C(=O)c1ccc2c(c1)N(Cc1ccc(Cl)cc1)C(=O)c1ccccc1S2=O` (configuration not stated), the survival was inactive: 97%. Take `COc1cc(OC)cc(C(=O)NCCc2csc(-c3cccc(C)c3)n2)c1`: the survival is inactive: 88%.

Regarding `CCc1ccc(NC(=O)C(=O)NCCc2sc(-c3ccc(OC)c(OC)c3)nc2C)cc1`, the survival is inactive: 78%. With `O=C(O)C1C2C=CC(O2)C1C(=O)N1CCOCC1` (configuration not stated) the figure was inactive: 94%; with `CN(C)c1ccc(CN2CCc3nc(N4CCN(c5ccccn5)CC4)ncc3C2)cc1`, inactive: 83%. With `Cc1nc2c(c(SCC(=O)Nc3ccccc3C(F)(F)F)n1)CCC2` the figure was inactive: 60%; with `CC(C)N(Cc1ccccc1)C(=O)c1cc2ccc3cccnc3c2[nH]1`, inactive: 81%. The result for `CCOc1ccccc1N1CC(c2nc3ccccc3n2CCCOc2ccccc2)CC1=O` (configuration not stated) reads inactive: 68%; that for `CCC(CC)C(=O)Nc1ccc(OCc2cc(=O)n3ccc(C)cc3n2)cc1`, inactive: 126%; that for `CCOC(=O)C1CCN(C(=O)c2nn(-c3ccc(C)cc3)c(=O)c3c2c2ccccc2n3C)CC1`, inactive: 92%.

Regarding `CCCCNC(=O)c1cnc2sc(N3CCCCC3)nn2c1=O`, the survival is inactive: 80%. Consider `Cc1ccccc1Cn1c(=O)n(Cc2ccco2)c(=O)c2oc3ccccc3c21`, for which the survival is inactive: 88%.
